{"source": "paper PMC7819943", "about": "“Rice protein-binding microarrays: a tool to detect cis-acting elements near promoter regions in rice”", "note": "This is one part of the list."}
{"target": "T1, OsWOX13 (Oryza sativa, UniProt Q5QMM3 1-267)", "T1 sequence": "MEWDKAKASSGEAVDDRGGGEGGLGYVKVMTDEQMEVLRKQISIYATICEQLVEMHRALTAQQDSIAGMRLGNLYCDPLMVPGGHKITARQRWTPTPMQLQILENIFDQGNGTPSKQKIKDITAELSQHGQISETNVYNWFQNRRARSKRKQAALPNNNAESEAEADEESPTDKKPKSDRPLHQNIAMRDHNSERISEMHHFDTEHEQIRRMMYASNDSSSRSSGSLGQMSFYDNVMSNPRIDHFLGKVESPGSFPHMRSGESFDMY", "test": "protein-binding microarray (RPBM); PBS, 2% BSA, 51.3 ng/ul salmon testes DNA, 50 uM zinc acetate, 200 nM TF, 25 C, 1 h; high values mean tight binding", "settings": "protein: recombinant; tags: N-terminal polyhistidine and DsRed monomer fusion (pET32a); label: CyDye5-dUTP incorporated in the synthesized complementary strand; 3' TTTTT single-stranded linker to array surface; dsDNA, one strand shown", "procedure,_shortened": "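The binding signal for each feature is its fluorescence intensity in arbitrary units. An Axon 4000B scanner was used to read a custom Agilent array that had been made double-stranded with Cy5-dUTP primer extension, blocked with 2% BSA, incubated at 25 °C for 1 h with 200 nM protein in PBS, 2% BSA, salmon testes DNA and 50 µM zinc acetate, and washed. The protein was an N-terminal polyhistidine–DsRed transcription factor fusion from E. coli BL21-CodonPlus, purified on Ni–NTA.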"}
{"sequence": "GTTACAAGTTAAAATTTTAATTTTAAAGCTGATTTTATCCCGGAGTCACCTAGTGCAG", "binding signal": "4000 fluorescence intensity (a.u.)"}
{"sequence": "GTGTAATAAATTGACAAGATAGATTGATGCCCAGTTTTCACGGAGTCACCTAGTGCAG", "binding signal": "37600 fluorescence intensity (a.u.)"}
{"sequence": "AGCTAATTAACTGAAGCCAGGTGTGAAGTTGAGTTACAGCCGGAGTCACCTAGTGCAG", "binding signal": "45100 fluorescence intensity (a.u.)"}
{"sequence": "GGACTGCCAGCCACCCATCAATCAATTGCTGAAAAGGTCTCGGAGTCACCTAGTGCAG", "binding signal": "5780 fluorescence intensity (a.u.)"}
{"sequence": "AACAAAATCACGCTCTGATTATTTTATCGTCTAGAATTAACGGAGTCACCTAGTGCAG", "binding signal": "9000 fluorescence intensity (a.u.)"}
{"sequence": "AAGAAATTAAATATTATTACTTGTTTGATCTTTTCCTTTTCGGAGTCACCTAGTGCAG", "binding signal": "3900 fluorescence intensity (a.u.)"}
{"sequence": "CACTGACATAATTACCCTTGGAAGTTATTATCAACGGAAGCGGAGTCACCTAGTGCAG", "binding signal": "35600 fluorescence intensity (a.u.)"}
{"sequence": "AAGCACAATTAATCTGAATAATTGAAGTTCAGAGCAGCAGCGGAGTCACCTAGTGCAG", "binding signal": "39400 fluorescence intensity (a.u.)"}
{"sequence": "TTGGAATTATTGGATAAACTCGGCTCCAGATTGTTAGGTACGGAGTCACCTAGTGCAG", "binding signal": "6970 fluorescence intensity (a.u.)"}
{"sequence": "AGCTTTTATTTAATTAATTATATACTAATTCCCCATTCTTCGGAGTCACCTAGTGCAG", "binding signal": "24100 fluorescence intensity (a.u.)"}
{"sequence": "TGTTTAGATTTGTTTCATTTTCTTCATACTTTGATGTCAACGGAGTCACCTAGTGCAG", "binding signal": "5340 fluorescence intensity (a.u.)"}
{"sequence": "ATTGTCAAATCATAGCGTAATTAGGTTTAACAGATCCATCCGGAGTCACCTAGTGCAG", "binding signal": "26900 fluorescence intensity (a.u.)"}
{"sequence": "CTAGGGTTCTTGATCAGTGATTGTGTGACAGTGTGAGAGGCGGAGTCACCTAGTGCAG", "binding signal": "3410 fluorescence intensity (a.u.)"}
{"sequence": "CCTAGTTTATTGTGTACTAATTTGTTGATGAATGGCATGTCGGAGTCACCTAGTGCAG", "binding signal": "14900 fluorescence intensity (a.u.)"}
{"sequence": "TACTGGGTGATTGCTTTCTACCCCGCAATAAGAGATGAGTCGGAGTCACCTAGTGCAG", "binding signal": "16000 fluorescence intensity (a.u.)"}
{"sequence": "ACATTGATTTGCAGAAGGACTATTTTGTAATAGTAAAGTACGGAGTCACCTAGTGCAG", "binding signal": "22200 fluorescence intensity (a.u.)"}
{"sequence": "TCACATTCTTGCATGATTGAACACTCCCTTTCATCCCTCACGGAGTCACCTAGTGCAG", "binding signal": "18900 fluorescence intensity (a.u.)"}
{"sequence": "ACCCTGTTTCGCTCCTAATTAAGATAGGAATTGTTACGATCGGAGTCACCTAGTGCAG", "binding signal": "4870 fluorescence intensity (a.u.)"}
{"sequence": "TCTAATAACCCCTTAATTAGCATCAAAATCATGAGTTTAACGGAGTCACCTAGTGCAG", "binding signal": "6570 fluorescence intensity (a.u.)"}
{"sequence": "CCATTAATTTTCCATTGTTAGAATGTGAATTTCAATACATCGGAGTCACCTAGTGCAG", "binding signal": "12300 fluorescence intensity (a.u.)"}
{"sequence": "CACATGTGATTGGGCCTCGAGCCTCAGCGTGCGTGCGCCCCGGAGTCACCTAGTGCAG", "binding signal": "20400 fluorescence intensity (a.u.)"}
{"sequence": "CCTGAATTTTGCTGCTGATTAGAATGTTATAAACATAACTCGGAGTCACCTAGTGCAG", "binding signal": "20400 fluorescence intensity (a.u.)"}
{"sequence": "GGCCCCTTGATAGGTAATAGCCCTAATCCAGTTGATATGGCGGAGTCACCTAGTGCAG", "binding signal": "8820 fluorescence intensity (a.u.)"}
